# This is one part of the list. Viral Rep nickase domains cut single-stranded DNA in vitro for 1 h at 37 °C with 3 µM enzyme; only the middle of the 90-letter strands is printed. A value is the log2 ratio of uncut reads to the pool without enzyme; uncut sequences lie near 0, cut ones below; no hit call is given. Reads are scaled to the total, so uncut sequences can rise above 0 when many others are cut.
# System: T1, Rep nickase domain of tomato golden mosaic virus
# T1 sequence (Rep 1-124, printed without the tag): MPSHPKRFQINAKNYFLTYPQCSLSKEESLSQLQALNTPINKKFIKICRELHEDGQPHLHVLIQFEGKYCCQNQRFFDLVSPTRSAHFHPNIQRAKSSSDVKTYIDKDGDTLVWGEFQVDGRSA
# Experiment: uncleaved DNA left, log2 of reads against the no-enzyme library (log2 ratio); higher = less cleavage (more negative = more Rep cleavage of the k-mer); sequences stand for … in CTCGTCCG…ACCGGAGA
# Experimental: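 A pool of 90-nt single-stranded DNAs with seven random bases just before the constant AC of the nick site (name = the seven bases) was cut by 3 µM recombinant His6-SUMO-tagged Rep nickase domain (300 nM DNA, 50 mM HEPES pH 8.0, 50 mM NaCl, 1 mM MnCl2, 1 h, 37 °C, three replicates). Uncut DNA was amplified and sequenced.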
row,Sequence,uncleaved DNA left (log2)
1,GTTTGAA,0.0799
2,CTCATCA,-0.125
3,AGTACGC,-0.114
4,TTATACT,-3.65
5,ACACCCG,-0.0724
6,GGTAGCT,-0.0984
7,GCCGTAC,0.0304
8,AACCGGT,-0.0965
9,GGCTTAC,-0.0708
10,GACAGGC,0.037
11,CGGTTGG,-0.132
12,AGTGGCA,0.11
13,CGAAATG,-0.091
14,GCCCGCA,-0.109
15,AACCCGA,-0.195
16,CCAACGG,0.166
17,GGCTCGT,0.108
18,TAAACTC,-2.24
19,GACGGTC,-0.0362
20,TCTTAAG,0.167

row,Sequence,uncleaved DNA left (log2)
1,TGCGTTG,0.0655
2,CGCGAGA,0.00585
3,ACCGCCC,-0.00401
4,CCAGCAC,-0.00948
5,AGACCCC,0.118
6,GCCAACG,-0.117
7,TGATGAT,-0.0299
8,TCGAAAA,0.0175
9,CTGTAAA,0.00197
10,TCAGATT,0.0379
11,GCAAGTG,-0.0291
12,GTCACTG,-0.0428
13,ACAGATA,0.152
14,CATTAAT,-0.646
15,CGTGTTG,-0.0895
16,GCAACAA,0.0487
17,CGCAGTC,-0.0535
18,GCAGTTT,-0.0378
19,GAACGCG,0.0224
20,TGGATAG,-0.1

# Reference: the supplement of paper PMC7826260
